# Source: the supplement of paper PMC8728848
# Some of the results follow.
# How the values were obtained:
# Assay in all cases: glycan array binding signal (z-score within array); higher = stronger binding
# Conditions in all cases: glycan notation: IUPAC condensed, linker removed
# [1] = target: Fuc(a1-2)[GalNAc(a1-4)]Gal(b1-4)GlcNAc
# Method in brief: (§1)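 Glycan array data came from 3228 arrays in the Consortium for Functional Glycomics database, and only arrays with an available protein sequence were kept. Glycan names were put into IUPAC-condensed notation, and columns mapping to the same glycan were averaged. The binding signal is a within-array Z-score, averaged across arrays of one protein sequence run at different concentrations or buffers and across linkers. A negative Z-score can be read as non-binding.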
# [2] = target: Fuc(a1-2)[GalNAc(b1-3)]Gal
# Method in brief: as §1
# [3] = target: Fuc(a1-3)GlcNAc
# Method in brief: as §1
# [4] = target: Fuc(a1-3)[Gal(b1-4)]Glc6S
# Method in brief: as §1
# [5] = target: Fuc(a1-3)[Gal(b1-4)]GlcNAc
# Method in brief: as §1
# [6] = target: Fuc(a1-3)[Gal(b1-4)]GlcNAc(b1-2)Man
# Method in brief: as §1
# [7] = target: Fuc(a1-3)[Gal(b1-4)]GlcNAc(b1-2)Man(a1-3)[Fuc(a1-3)[Gal(b1-4)]GlcNAc(b1-2)Man(a1-6)]Man(b1-4)GlcNAc(b1-4)GlcNAc
# Method in brief: as §1
# [8] = target: Fuc(a1-3)[Gal(b1-4)]GlcNAc(b1-2)Man(a1-3)[Fuc(a1-3)[Gal(b1-4)]GlcNAc(b1-2)Man(a1-6)]Man(b1-4)GlcNAc(b1-4)[Fuc(a1-6)]GlcNAc
# Method in brief: as §1
# [9] = target: Fuc(a1-3)[Gal(b1-4)]GlcNAc(b1-3)Gal(b1-3)[Fuc(a1-4)]GlcNAc
# Method in brief: as §1
# [10] = target: Fuc(a1-3)[Gal(b1-4)]GlcNAc(b1-3)Gal(b1-4)[Fuc(a1-3)]GlcNAc
# Method in brief: as §1
# [11] = target: Fuc(a1-3)[Gal(b1-4)]GlcNAc(b1-3)Gal(b1-4)[Fuc(a1-3)]GlcNAc(b1-3)Gal(b1-4)[Fuc(a1-3)]GlcNAc
# Method in brief: as §1
# [12] = target: Fuc(a1-3)[Gal(b1-4)]GlcNAc(b1-3)GalNAc
# Method in brief: as §1
# [13] = target: Fuc(a1-3)[Gal(b1-4)]GlcNAc(b1-4)Gal(b1-4)[Fuc(a1-3)]GlcNAc
# Method in brief: as §1
# [14] = target: Fuc(a1-3)[Gal(b1-4)]GlcNAc(b1-4)Gal(b1-4)[Fuc(a1-3)]GlcNAc(b1-4)Gal(b1-4)[Fuc(a1-3)]GlcNAc
# Method in brief: as §1
# [15] = target: Fuc(a1-3)[Gal(b1-4)]GlcNAc(b1-6)GalNAc
# Method in brief: as §1
# [16] = target: Fuc(a1-3)[Gal(b1-4)]GlcNAc(b1-6)[Gal(b1-3)GlcNAc(b1-3)]Gal(b1-4)Glc
# Method in brief: as §1
# [17] = target: Fuc(a1-3)[Gal(b1-4)]GlcNAc6S
# Method in brief: as §1
# [18] = target: Fuc(a1-3)[Gal3S(b1-4)]Glc
# Method in brief: as §1
# [19] = target: Fuc(a1-3)[Gal3S(b1-4)]GlcNAc
# Method in brief: as §1
# [20] = target: Fuc(a1-3)[Gal3S(b1-4)]GlcNAc6S
# Method in brief: as §1
# [21] = target: Fuc(a1-3)[GalNAc(b1-4)]GlcNAc
# Method in brief: as §1
# [22] = target: Fuc(a1-3)[GalNAc(b1-4)]GlcNAc6S
# Method in brief: as §1
# [23] = target: Fuc(a1-4)GlcNAc
# Method in brief: as §1
# [24] = target: Fuc(b1-3)GlcNAc
# Method in brief: as §1
# [25] = target: Gal(a1-2)Gal
# Method in brief: as §1
# [26] = target: Gal(a1-3)Gal
# Method in brief: as §1
# [27] = target: Gal(a1-3)Gal(b1-3)GlcNAc
# Method in brief: as §1
# [28] = target: Gal(a1-3)Gal(b1-3)GlcNAc(b1-2)Man
# Method in brief: as §1
# [29] = target: Gal(a1-3)Gal(b1-3)GlcNAc(b1-2)Man(a1-3)[Gal(a1-3)Gal(b1-3)GlcNAc(b1-2)Man(a1-6)]Man(b1-4)GlcNAc(b1-4)GlcNAc
# Method in brief: as §1
# [30] = target: Gal(a1-3)Gal(b1-3)GlcNAc(b1-3)GalNAc
# Method in brief: as §1
# [31] = target: Gal(a1-3)Gal(b1-3)GlcNAc(b1-6)GalNAc
# Method in brief: as §1
# [32] = target: Gal(a1-3)Gal(b1-3)[Fuc(a1-4)]GlcNAc(b1-2)Man(a1-3)[Gal(a1-3)Gal(b1-3)[Fuc(a1-4)]GlcNAc(b1-2)Man(a1-6)]Man(b1-4)GlcNAc(b1-4)GlcNAc
# Method in brief: as §1
# [33] = target: Gal(a1-3)Gal(b1-4)Glc
# Method in brief: as §1
# [34] = target: Gal(a1-3)Gal(b1-4)GlcNAc
# Method in brief: as §1
# [35] = target: Gal(a1-3)Gal(b1-4)GlcNAc(b1-2)Man
# Method in brief: as §1
# [36] = target: Gal(a1-3)Gal(b1-4)GlcNAc(b1-2)Man(a1-3)[Gal(a1-3)Gal(b1-4)GlcNAc(b1-2)Man(a1-6)]Man(b1-4)GlcNAc(b1-4)GlcNAc
# Method in brief: as §1
# [37] = target: Gal(a1-3)Gal(b1-4)GlcNAc(b1-3)GalNAc
# Method in brief: as §1
binder,measurement,setting,value
"CSA (Cytisus scoparius), P29257 (protein) SEELSFSFTKFKTDQKNLILQRDALITPTGKLQLTTVENGKPAAYSLGRALYSTPIHIWDKSTGDEASFATFFSFVISDAPNPSTAATDGLAFFLAPADTQPQSAGGYLGLFEKDSSYNSSNQIVAVEFDTYYNSAWDPQTNPHIGIDVNTIKSKKVSSWGFKNGNVATVLITYQPSSKSLVASLVYPSGQTSDKTSYIISANVDLKATVPEWVRIGFSATTGQTDNYIETHDILSWSFKSKLPATKN",glycan array binding signal (z-score),[1],-0.148
same,glycan array binding signal (z-score),[2],4.5
same,glycan array binding signal (z-score),[3],-0.136
same,glycan array binding signal (z-score),[4],-0.122
same,glycan array binding signal (z-score),[5],-0.207
same,glycan array binding signal (z-score),[6],-0.213
same,glycan array binding signal (z-score),[7],-0.131
same,glycan array binding signal (z-score),[8],-0.043
same,glycan array binding signal (z-score),[9],-0.128
same,glycan array binding signal (z-score),[10],-0.149
same,glycan array binding signal (z-score),[11],-0.166
same,glycan array binding signal (z-score),[12],-0.185
same,glycan array binding signal (z-score),[13],-0.175
same,glycan array binding signal (z-score),[14],-0.172
same,glycan array binding signal (z-score),[15],0.009
same,glycan array binding signal (z-score),[16],-0.228
same,glycan array binding signal (z-score),[17],-0.043
same,glycan array binding signal (z-score),[18],-0.165
same,glycan array binding signal (z-score),[19],-0.093
same,glycan array binding signal (z-score),[20],-0.155
same,glycan array binding signal (z-score),[21],-0.189
same,glycan array binding signal (z-score),[22],-0.175
same,glycan array binding signal (z-score),[23],-0.201
same,glycan array binding signal (z-score),[24],-0.186
same,glycan array binding signal (z-score),[25],-0.183
same,glycan array binding signal (z-score),[26],-0.186
same,glycan array binding signal (z-score),[27],-0.158
same,glycan array binding signal (z-score),[28],-0.192
same,glycan array binding signal (z-score),[29],0.014
same,glycan array binding signal (z-score),[30],-0.187
same,glycan array binding signal (z-score),[31],-0.218
same,glycan array binding signal (z-score),[32],-0.023
same,glycan array binding signal (z-score),[33],-0.157
same,glycan array binding signal (z-score),[34],-0.176
same,glycan array binding signal (z-score),[35],-0.171
same,glycan array binding signal (z-score),[36],-0.13
same,glycan array binding signal (z-score),[37],-0.149
